Laboratory results: the supplement of paper PMC12578646, “Prodrug florfenicol amine is activated by intrinsic resistance to target Mycobacterium abscessus” (Nature Microbiology, 2025)
M. abscessus ATCC 19977 and its deletion, point and complemented mutants after 5 days of drug at 37 °C plus 24 h of resazurin. Growth in % of untreated wells at the dose given (lower = more inhibition); checkerboards give % inhibition (higher = more inhibition); IC50 from the fitted curve (lower = more potent). No active / inactive call. IC50 values come from the same 384-well curves. Growth is not capped and can exceed 100%. The direction of the checkerboard scale is read from the raw signals. Capreomycin is a mixture.

Experiments:
Experiment in all cases: growth relative to untreated wells; higher = more growth (less inhibition)
[1] = test system: Mycobacterium abscessus ATCC 19977 Eis2 E120fs
Experimental: (§1)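 384-well two-fold dose series, two replicates; 5 days at 37 °C, then 24 h with resazurin; fluorescence scaled to growth and killed controls.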

[2] = test system: Mycobacterium abscessus ATCC 19977 Eis2 T258R
Experimental: as §1

[3] = test system: Mycobacterium abscessus ATCC 19977 Eis2 Y227D
Experimental: as §1

[4] = test system: Mycobacterium abscessus ATCC 19977 Eis2 Y255*
Experimental: as §1

[5] = test system: Mycobacterium abscessus ATCC 19977 Eis2 Y284*
Experimental: as §1

[6] = test system: Mycobacterium abscessus ATCC 19977 WhiB7 F24fs
Experimental: as §1

[7] = test system: Mycobacterium abscessus ATCC 19977 WhiB7 L37P
Experimental: as §1

[8] = test system: Mycobacterium abscessus ATCC 19977 WhiB7 R76del
Experimental: as §1

[9] = test system: Mycobacterium abscessus ATCC 19977 WhiB7 T70fs
Experimental: as §1

[10] = test system: Mycobacterium abscessus ATCC 19977 Δeis2
Experimental: as §1

[11] = test system: Mycobacterium abscessus ATCC 19977 ΔwhiB7
Experimental: as §1

[12] = test system: Mycobacterium abscessus ATCC 19977
Experimental: as §1

NCC[C@H](O)C(=O)N[C@@H]1C[C@H](N)[C@@H](O[C@H]2O[C@H](CN)[C@@H](O)[C@H](O)[C@H]2O)[C@H](O)[C@H]1O[C@H]1O[C@H](CO)[C@@H](O)[C@H](N)[C@H]1O [amikacin]
Conditions	growth [%]
[1], 0.03125 µg/mL	117
[1], 0.0625 µg/mL	115
[1], 0.125 µg/mL	124
[1], 0.25 µg/mL	134
[1], 0.5 µg/mL	-0.202
[1], 1 µg/mL	-1.06
[1], 2 µg/mL	-1.36
[1], 4 µg/mL	-1.36
[1], 8 µg/mL	-1.75
[1], 16 µg/mL	-1.27
[1], 32 µg/mL	-1.05
[1], 64 µg/mL	0.312
[2], 0.03125 µg/mL	103
[2], 0.0625 µg/mL	112
[2], 0.125 µg/mL	119
[2], 0.25 µg/mL	116
[2], 0.5 µg/mL	-0.893
[2], 1 µg/mL	-1.65
[2], 2 µg/mL	4.88
[2], 4 µg/mL	-2.18
[2], 8 µg/mL	-2.55
[2], 16 µg/mL	-1.79
[2], 32 µg/mL	-1.72
[2], 64 µg/mL	-0.584
[3], 0.03125 µg/mL	107
[3], 0.0625 µg/mL	122.3
[3], 0.125 µg/mL	121
[3], 0.25 µg/mL	126.7
[3], 0.5 µg/mL	14
[3], 1 µg/mL	0.177
[3], 2 µg/mL	-0.831
[3], 4 µg/mL	-0.189
[3], 8 µg/mL	-0.623
[3], 16 µg/mL	0.143
[3], 32 µg/mL	0.135
[3], 64 µg/mL	6.62
[4], 0.03125 µg/mL	109
[4], 0.0625 µg/mL	118
[4], 0.125 µg/mL	126
[4], 0.25 µg/mL	105
[4], 0.5 µg/mL	-2.09
[4], 1 µg/mL	-2.75
[4], 2 µg/mL	-3.15
[4], 4 µg/mL	-2.94
[4], 8 µg/mL	-3.51
[4], 16 µg/mL	-3.01
[4], 32 µg/mL	-2.75
[4], 64 µg/mL	-0.902
[5], 0.03125 µg/mL	111
[5], 0.0625 µg/mL	113
[5], 0.125 µg/mL	121
[5], 0.25 µg/mL	89.6
[5], 0.5 µg/mL	-1.02
[5], 1 µg/mL	-0.849
[5], 2 µg/mL	-1.87
[5], 4 µg/mL	-1.92
[5], 8 µg/mL	-2.21
[5], 16 µg/mL	-1.3
[5], 32 µg/mL	-1.28
[5], 64 µg/mL	0.242
[6], 0.03125 µg/mL	110
[6], 0.0625 µg/mL	120
[6], 0.125 µg/mL	123
[6], 0.25 µg/mL	123
[6], 0.5 µg/mL	-0.812
[6], 1 µg/mL	-1.18
[6], 2 µg/mL	-1.25
[6], 4 µg/mL	-1.92
[6], 8 µg/mL	-1.56
[6], 16 µg/mL	-1.29
[6], 32 µg/mL	-0.997
[6], 64 µg/mL	1
[7], 0.03125 µg/mL	104
[7], 0.0625 µg/mL	114
[7], 0.125 µg/mL	124
[7], 0.25 µg/mL	127.3
[7], 0.5 µg/mL	-0.63
[7], 1 µg/mL	-1.24
[7], 2 µg/mL	-1.34
[7], 4 µg/mL	-1.5
[7], 8 µg/mL	-1.73
[7], 16 µg/mL	-0.8
[7], 32 µg/mL	-0.379
[7], 64 µg/mL	0.668
[8], 0.03125 µg/mL	102
[8], 0.0625 µg/mL	117
[8], 0.125 µg/mL	111
[8], 0.25 µg/mL	112
[8], 0.5 µg/mL	-0.908
[8], 1 µg/mL	-1.29
[8], 2 µg/mL	2.15
[8], 4 µg/mL	-1.59
[8], 8 µg/mL	-1.51
[8], 16 µg/mL	-1.43
[8], 32 µg/mL	-0.899
[8], 64 µg/mL	0.539
[9], 0.03125 µg/mL	102
[9], 0.0625 µg/mL	117
[9], 0.125 µg/mL	115.8
[9], 0.25 µg/mL	120
[9], 0.5 µg/mL	-2.54
[9], 1 µg/mL	-3.66
[9], 2 µg/mL	-3.93
[9], 4 µg/mL	-3.7
[9], 8 µg/mL	-4.05
[9], 16 µg/mL	-3.94
[9], 32 µg/mL	-3.04
[9], 64 µg/mL	-1.74
[10], 0.03125 µg/mL	104.9
[10], 0.0625 µg/mL	108
[10], 0.125 µg/mL	115
[10], 0.25 µg/mL	82.5
[10], 0.5 µg/mL	-1.28
[10], 1 µg/mL	-1.64
[10], 2 µg/mL	-2.12
[10], 4 µg/mL	-1.82
[10], 8 µg/mL	-2.39
[10], 16 µg/mL	-1.6478
[10], 32 µg/mL	-1.76
[10], 64 µg/mL	-0.303
[11], 0.03125 µg/mL	111
[11], 0.0625 µg/mL	114
[11], 0.125 µg/mL	153.3
[11], 0.25 µg/mL	52.1
[11], 0.5 µg/mL	-2.82
[11], 1 µg/mL	-3.31
[11], 2 µg/mL	-3.62
[11], 4 µg/mL	0.603
[11], 8 µg/mL	-2.92
[11], 16 µg/mL	-3.51
[11], 32 µg/mL	-2.78
[11], 64 µg/mL	-1.56
[12], 0.03125 µg/mL	108
[12], 0.0625 µg/mL	115
[12], 0.125 µg/mL	116
[12], 0.25 µg/mL	122.6
[12], 0.5 µg/mL	124
[12], 1 µg/mL	56.7
[12], 2 µg/mL	-0.405
[12], 4 µg/mL	-1.13
[12], 8 µg/mL	-1.56
[12], 16 µg/mL	-0.994
[12], 32 µg/mL	-0.0558
[12], 64 µg/mL	0.809
